Patent US20140004122A1, “METHODS FOR TREATING OR PREVENTING CHOLESTEROL RELATED DISORDERS” (AMGEN INC., priority 2011, published 2014)

Assays:
cynomolgus monkeys = assay: Serum lipids after single subcutaneous dose in cynomolgus monkeys (Example 36); format: in vivo, cynomolgus monkey; conditions: 0.5 mg/kg single SC
Text: Briefly, naive male cynomolgus monkeys were acclimated to their environment for at least 2 weeks prior to experimentation. Animals were randomized into treatment groups based on a pre-screen of their serum TC, HDL-C, LDL-C, and triglyceride levels, and their body weight. After 1 week, animals were fasted overnight, and bled from the peripheral vasculature (cephalic or saphenous vein), for measurement of baseline serum lipid levels at a time point designated T=0. […] Fasting blood samples were then collected from animals at designated time points over a 45 day period.
At specified time points, blood was collected from animals under overnight fasting conditions from the peripheral vasculature (cephalic or saphenous vein). Whole blood was allowed to coagulate for 30 minutes at room temperature. Following centrifugation at 3,000 rpm for 20 minutes, serum was collected. Direct serum cholesterol analysis was performed using the Cobas Integra 400 analyzer (Roche Diagnostics Inc, Indianapolis, Ind.). Apolipoprotein B serum levels were determined at specified time points (day 0, 3, 6, 15, 24 and 33) by Anilytics, MD, with the following methodology. A 17 μL aliquot of the sample (no preparation) was used for analysis with a Hitachi 717 Analyzer using a 6 points standard curve. If the initial value of the sample was higher than the standard curve linearity, then the sample was diluted and repeated with the result multiplied by the appropriate dilution factor. The reagents for the assay (APO-B Reagent Kit #86071, Antibody Set #86060, Control Set #86103) were obtained from DiaSorin (Stillwater, Minn.).
A statistical model that considers baseline as a covariate and treatment group as a fixed effect was fit to the log transformed response at each time point for LDL-C, HDL-C, TC, and triglycerides. Tukey's multiple comparison correction was applied to adjust the pair wise comparisons at each time point. The statistical significance was evaluated at alpha=0.05 using adjusted p-values.

[1] = Viscosity of 11F1 formulations; format: physicochemical
Experimental: Concentration determination was then carried out by measuring absorbance at A280 using an Agilent 8453 Spectrophotometer (Santa Clara, Calif.). Protein concentration was calculated using the appropriate extinction coefficient. The appropriate amount of buffer was then added to the sample to dilute it back down to the desired concentration and another A280 was performed to obtain the final concentration for the experiment. Excipients were added individually to the 11F1 formulations samples derived from the high concentration stock solutions.
Viscosity was measured using Brookfield LV-DVII cone and plate viscometer (Middleboro, Mass.) with a CPE-40 spindle with matching sample cup temperature regulated by a circulating water bath at constant 25° C. 500 μL of sample was added to sample cup with positive displacement pipettor. […] At this point the rotational speed was stopped and a viscosity reading was generated by Rheocalc software.
High concentration protein formulations were sometimes measured using a different type of viscometer, an Anton Paar Physica Model MCR300 with a CP50-1 spindle. A 600 uL sample is used in this instrument and Rheoplus software version 3.4 was use to calculate solution viscosity. There was not a large difference in measurements using either viscometer.

[2] = tested on: C57BL/6 mice expressing human PCSK9 by AAV; assay: Serum lipids in mice expressing human PCSK9 by AAV (Example 35); format: in vivo, mouse; conditions: 30 mg/kg IV bolus
Experimental: Briefly, 120 C57BL/6 mice expressing human PCSK9 were generated by infection with an engineered adeno associated virus (AAV) coding for human PCSK9, resulting in elevated levels of circulating low density lipoprotein cholesterol (LDL-C). Serum cholesterol analysis was performed using the Cobas Integra 400 plus chemistry analyzer (Roche Diagnostics, Indianapolis, Ind.). Animals were randomized into treatment groups with similar levels of non-HDL-C (LDL-C and VLDL-C), HDL-C and TC. On treatment day 0 (T=0) a subset of mice was euthanized and serum collected to establish that day's baseline levels. Remaining mice were then administered 11F1, 8A3 or anti-keyhole limpethemocyanin (KLH) IgG2 control antibody at 30 mg/kg. via tail vein injection. At days 1 through 5 following injection, subsets of mice were euthanized and whole blood was collected from the vena cava and allowed to coagulate for 30 minutes at room temperature. Following centrifugation at 12,000 rpm with a bench top centrifuge for 10 minutes, serum was collected. Serum cholesterol analysis was performed using the Cobas Integra 400 plus chemistry analyzer.
Serum concentrations of PCSK9 were determined using a sandwich ELISA assay. […] Plates were washed thoroughly with 1×PBS/0.05% tween and then blocked for 2 hours with 3% BSA/1×PBS. After washing, plates were incubated for 2 hours with serum diluted in general assay diluents (Immunochemistry Technologies, Bloomington, Minn.). […] Bound PCSK9 was detected by incubation with TMB substrate. The reaction was stopped with addition of 1N HCl and the absorbance measured at 450 nm on a Spectra Max Plus 384 Spectrophotometer (Molecular Devices Inc, Sunnyvale, Calif.). […]
All cholesterol results were expressed as the mean±standard error of the mean. All pharmacokinetic data were expressed as the mean±standard deviation. The p value of 0.05, determined by 1-way ANOVA was used as a threshold to determine statistical significance between the anti-KLH IgG2 control antibody injected animals and those dosed with anti-PCSK9 antibody at the same time point.

B1: 11F1: anti-PCSK9 antibody; light/heavy variable region SEQ ID NO 465/463 (antibody, listed as Homo sapiens, V domains shown)
VH: EVQLVESGGGLVQPGGSLRLSCAASGFTFSNYWMSWVRQAPGKGLEWVASIKQDGSEKYYVDSVKGRFAISRDNAKNSLFLQMNSLRAEDTAVYYCARDLVLMVYDIDYYYYGMDVWGQGTTVTVSS
VL: [about 100 residues not spelt out]YCMQTLQTPLTFGGGTKVEIK
With B1 the “TC returned to levels similar to control animals by day” value (cynomolgus monkeys) was at most 27 days, the “maximal lowering of LDL-C as compared to anti-KLH IgG2 control antibody-treated monkeys” value (cynomolgus monkeys) was 57% and the “maximal lowering of TC as compared to control animals” value (cynomolgus monkeys) was 27%. For the same molecule, the “time of maximal LDL-C lowering after injection” value (cynomolgus monkeys) was 9 days, the “time of maximal TC lowering after injection” value (cynomolgus monkeys) was 9 days and the HDL-C levels (cynomolgus monkeys; 45 day study) was “No statistically significant changes”. The triglycerides levels (cynomolgus monkeys; 45 day study) was “No statistically significant changes”, the “HDL-C or triglyceride levels vs anti-KLH IgG2 control antibody-treated monkeys” value (cynomolgus monkeys; alpha=0.05) was “not significantly different” and the “serum ApoB levels vs anti-KLH IgG2 control antibody-treated monkeys” value (cynomolgus monkeys; days 3, 6, 15, 24 and 33) was “ApoB lowering at days 3 to 24”. For the same molecule, the “maximal lowering of LDL-C (vs anti-KLH IgG2 control antibody at the same time point)” value (cynomolgus monkeys; printed as negative change) was −57%, the “Viscosity (cP) @ 25 C.” value ([1]; 11F1 145 mg/mL, 10 mM sodium acetate, 9% Sucrose 0.01% PS 20, pH 5.2) was 14 cP and the “Viscosity (cP) @ 25 C.” value ([1]; 11F1 147 mg/mL, 10 mM sodium acetate, 150 mM Methionine, 3% Sucrose, 0.01% PS 20, pH 5.2) was 13 cP. For the same molecule, the “Viscosity (cP) @ 25 C.” value ([1]; 11F1 170 mg/mL, 10 mM sodium acetate, 250 mM Proline, 0.01% PS 20, pH 5.0) was 18 cP, the “Viscosity (cP) @ 25 C.” value ([1]; 11F1 172 mg/mL, 10 mM sodium acetate, 9% Sucrose 0.01% PS 20, pH 5.2) was 23 cP and the “Viscosity (cP) @ 25 C.” value ([1]; 11F1 186 mg/mL, 10 mM sodium acetate, 9% Sucrose 0.01% PS 20, pH 5.2) was 45 cP. For the same molecule, the “Viscosity (cP) @ 25 C.” value ([1]; 11F1 191 mg/mL, 10 mM sodium acetate, 9% Sucrose 0.01% PS 20, pH 5.2) was 53 cP, the “Viscosity (cP) @ 25 C.” value ([1]; 11F1 192 mg/mL, 10 mM sodium acetate, 150 mM Methionine, 3% Sucrose, 0.01% PS 20, pH 5.2) was 31 cP and the “Viscosity (cP) @ 25 C.” value ([1]; 11F1 196 mg/mL, 10 mM sodium acetate, 250 mM Proline, 0.01% PS 20, pH 5.0) was 36 cP. The “Viscosity (cP) @ 25 C.” value ([1]; 11F1 211 mg/mL, 10 mM sodium acetate, 9% Sucrose, 150 mM Alanine, pH 5.2) was 43 cP, the “Viscosity (cP) @ 25 C.” value ([1]; 11F1 211 mg/mL, 10 mM sodium acetate, 9% Sucrose, 150 mM Glycine, pH 5.2) was 45 cP and the “Viscosity (cP) @ 25 C.” value ([1]; 11F1 211 mg/mL, 10 mM sodium acetate, 9% Sucrose, 150 mM Serine, pH 5.2) was 48 cP. For the same molecule, the “Viscosity (cP) @ 25 C.” value ([1]; 11F1 211 mg/mL, 10 mM sodium acetate, 9% Sucrose, 150 mM sodium chloride, pH 5.2) was 62 cP, the “Viscosity (cP) @ 25 C.” value ([1]; 11F1 211 mg/mL, 10 mM sodium acetate, 9% Sucrose, pH 5.2) was 73 cP and the “Viscosity (cP) @ 25 C.” value ([1]; 11F1 211 mg/mL, 10 mM sodium acetate, pH 5.2) was 58 cP. For the same molecule, the “Viscosity (cP) @ 25 C.” value ([1]; 11F1 211 mg/mL, line without buffer, standing above 10 mM sodium acetate, 9% Sucrose, 100 mM Arginine, pH 5.2) was 26 cP, the “Viscosity (cP) @ 25 C.” value ([1]; 11F1 212 mg/mL, 10 mM sodium acetate, 150 mM Methionine, 3% Sucrose, 0.01% PS 20, pH 5.2) was 54 cP and the “Viscosity (cP) @ 25 C.” value ([1]; 11F1 212 mg/mL, 10 mM sodium acetate, 250 mM Proline, 0.01% PS 20, pH 5.0) was 47 cP. The “Viscosity (cP) @ 25 C.” value ([1]; 11F1 224 mg/mL, 10 mM sodium acetate, 9% Sucrose 0.01% PS 20, pH 5.2) was 133 cP, the “Viscosity (cP) @ 25 C.” value ([1]; 11F1 […], 10 mM sodium acetate, 150 mM Methionine, 3% Sucrose, 0.01% PS 20, pH 5.2) was 18 cP and the “Viscosity (cP) @ 25 C.” value ([1]; 11F1 […], 10 mM sodium acetate, 9% Sucrose 0.01% PS 20, pH 5.2) was 8 cP. For the same molecule, the “viscosity of formulations with stabilizers” value ([1]; formulations comprising methionine, proline, arginine, glycine, serine and alanine) was “particularly lower viscosity”, the “lowering of HDL-C” value ([2]; any time point) was “No significant lowering” and the “lowering of TC compared to control animals” value ([2]; day 4) was 22%. The “maximum lowering of serum non-HDL-C compared to control animals” value ([2]; significant at days 1, 2 and 4 post-injection) was 59%.
